Source: the supplement of paper PMC12217912
The list shows a part of the results. The full chains were built here from the parent and the listed change. Values near 0.05 are background.

B1: TEV protease; numbered along this chain (parent)
chain: MGESLFKGPRDYNPISSSICHLTNESDGHTTSLYGIGFGPFIITNKHLFRRNNGTLVVQSLHGVFKVKDTTTLQQHLVDGRDMIIIRMPKDFPPFPQKLKFREPQREERICLVTTNFQTKSMSSMVSDTSCTFPSGDGIFWKHWIQTKDGQCGSPLVSTRDGFIVGIHSASNFTNTNNYFTSVPKNFMELLTNQEAQQWVSGWRLNADSVLWGGHKVFMVKPEEPFQPVKEATQL

Variants of: B1
Test: raw area under fraction-flipped curve 0-4 h after induction (AUC4h, not background-subtracted), DNA-recorder readout of cleavage of the substrate (dimensionless); higher = more cleavage of the substrate by the protease variant
Settings: temperature: 34 °C; time window: 0-4 h after rhamnose induction
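Note: Bxb1 expression induced with 0.2% (w/v) L-rhamnose at OD600 near 0.5, cultures sampled hourly, flipped fraction per protease–substrate barcode pair counted by paired-end Illumina sequencing.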

Variant	area with substrate ENLDFQS	area with substrate ENLEFQS	area with substrate ENLFFQS	area with substrate ENLHFQS	area with substrate ENLIFQS	area with substrate ENLKFQS	area with substrate ENLLFQS	area with substrate ENLMFQS	area with substrate ENLNFQS	area with substrate ENLQFQS	area with substrate ENLWFQS	area with substrate ENLGFQS	area with substrate ENLPFQS	area with substrate ENLRFQS	area with substrate ENLSFQS	area with substrate ENLTFQS	area with substrate ENLVFQS
MGESLFKGPRDYNPISSSICHLTNESDGHTTSLYGIGFGPFIITNKHLFRRNNGTLVVQSLHGVFKVKDTTTLQQHLVDGRDMIIIRMPKDFPPFPQKLKFREPQREERICLVTTNFQTKSMSSMVSDTSCTFPSGDGILWKHWIQTKDGQCGSPLVSTRDGFIVGIHSASNFTNTNNYFTSVPKNFMELLTNQEAQQWVSGWRLNADSVLWGGHKVFMVKPEEPFQPVKEATQL [F140L]	0.0616	0.065	0.0637	0.0595	0.0428	0.0608	0.0588	0.0352	0.0617	0.078	0.0709	–	–	–	–	–	–
MGESLFKGPRDYNPISSSICHLTNESDGHTTSLYGIGFGPFIITNKHLFRRNNGTLVVQSLHGVFKVKDTTTLQQHLVDGRDMIIIRMPKDFPPFPQKLKFREPQREERICLVTTNFQTKSMSSMVSDTSCTFPSGDGIVWKHWIQTKDGQCGSPLVSTRDGFIVGIHSASNFTNTNNYFTSVPKNFMELLTNQEAQQWVSGWRLNADSVLWGGHKVFMVKPEEPFQPVKEATQL [F140V]	0.0622	0.0563	0.0721	0.0608	0.0607	0.0594	0.0652	0.0592	0.0647	0.0699	0.0563	0.063	0.0634	0.0579	0.0543	0.0681	0.0631
MGESLFKGPRDYNPISSSICHLTNESDGHTTSLYGIGFGPFIITNKHLFRRNNGTLVVQSLHGVFKVKDTTTLQQHLVDGRDMIIIRMPKDFPPFPQKLKFREPQREERICLVTTNFQTKSMSSMVSDTSCTFPSGDGIWWKHWIQTKDGQCGSPLVSTRDGFIVGIHSASNFTNTNNYFTSVPKNFMELLTNQEAQQWVSGWRLNADSVLWGGHKVFMVKPEEPFQPVKEATQL [F140W]	0.0435	–	–	–	–	0.0552	–	–	0.066	–	–	–	–	0.0619	–	–	–
MGESLFKGPRDYNPISSSICHLTNESDGHTTSLYGIGFGPFIITNKHLFRRNNGTLVVQSLHGVFKVKDTTTLQQHLVDGRDMIIIRMPKDFPPFPQKLKFREPQREERICLVTTNFQTKSMSSMVSDTECTFPSGDGIFWKHWIQTKDGQCGSPLVSTRDGFIVGIHSASNFTNTNNYFTSVPKNFMELLTNQEAQQWVSGWRLNADSVLWGGHKVFMVKPEEPFQPVKEATQL [S130E]	0.0627	0.0579	0.0796	0.0563	–	0.075	0.031	–	0.089	–	–	–	0.0589	–	–	–	–
MGESLFKGPRDYNPISSSICHLTNESDGHTTSLYGIGFGPFIITNKHLFRRNNGTLVVQSLHGVFKVKDTTTLQQHLVDGRDMIIIRMPKDFPPFPQKLKFREPQREERICLVTTNFQTKSMSSMVSDTSCTFPSGDGIFWKHWIQFKDGQCGSPLVSTRDGFIVGIHSASNFTNTNNYFTSVPKNFMELLTNQEAQQWVSGWRLNADSVLWGGHKVFMVKPEEPFQPVKEATQL [T147F]	0.0602	–	0.0701	–	–	0.0664	0.0442	0.0784	–	–	0.0573	–	0.0768	0.0637	–	–	–
MGESLFKGPRDYNPISSSICHLTNESDGHTTSLYGIGFGPFIITNKHLFRRNNGTLVVQSLHGVFKVKDTTTLQQHLVDGRDMIIIRMPKDFPPFPQKLKFREPQREERICLVTTNFQTKSMSSMCSDTSCTFPSGDGIFWKHWIQTKDGQCGSPLVSTRDGFIVGIHSASNFTNTNNYFTSVPKNFMELLTNQEAQQWVSGWRLNADSVLWGGHKVFMVKPEEPFQPVKEATQL [V126C]	0.0698	–	0.0942	0.0708	–	0.0862	–	–	0.0623	–	–	–	0.0477	0.0786	0.0772	–	–
MGESLFKGPRDYNPISSSICHLTNESDGHTTSLYGIGFGPFIITNKHLFRRNNGTLVVQSLHGVFKVKDTTTLQQHLVDGRDMIIIRMPKDFPPFPQKLKFREPQREERICLVTTNFQTKSMSSMVSDTSCTFPSGFGIFWKHWIQTKDGQCGSPLVSTRDGFIVGIHSASNFTNTNNYFTSVPKNFMELLTNQEAQQWVSGWRLNADSVLWGGHKVFMVKPEEPFQPVKEATQL [D137F]	0.0409	–	0.0769	–	–	0.074	–	–	0.082	0.0891	0.0818	0.0586	0.0491	–	–	–	–
MGESLFKGPRDYNPISSSICHLTNESDGHTTSLYGIGFGPFIITNKHLFRRNNGTLVVQSLHGVFKVKDTTTLQQHLVDGRDMIIIRMPKDFPPFPQKLKFREPQREERICLVTTNFQTKSMSSMVSDLSCTFPSGDGIFWKHWIQTKDGQCGSPLVSTRDGFIVGIHSASNFTNTNNYFTSVPKNFMELLTNQEAQQWVSGWRLNADSVLWGGHKVFMVKPEEPFQPVKEATQL [T129L]	0.0459	0.0707	0.0674	0.0845	–	0.0687	–	–	0.0615	–	0.0635	–	0.0684	0.0417	0.0553	0.0624	0.0822
MGESLFKGPRDYNPISSSICHLTNESDGHTTSLYGIGFGPFIITNKHLFRRNNGTLVVQSLHGVFKVKDTTTLQQHLVDGRDMIIIRMPKDFPPFPQKLKFREPQREERICLVTTNFQTKSMSSMVSDTSCTLPSGDGIFWKHWIQTKDGQCGSPLVSTRDGFIVGIHSASNFTNTNNYFTSVPKNFMELLTNQEAQQWVSGWRLNADSVLWGGHKVFMVKPEEPFQPVKEATQL [F133L]	0.0509	0.0619	–	–	–	0.0755	–	–	0.0501	0.0615	0.0763	0.0546	0.0547	0.066	–	–	0.0844
MGESLFKGPRDYNPISSSICHLTNESDGHTTSLYGIGFGPFIITNKHLFRRNNGTLVVQSLHGVFKVKDTTTLQQHLVDGRDMIIIRMPKDFPPFPQKLKFREPQREERICLVTTNFQTKSMSSMVSDTSCTFPSGDGIFWKHWIDTKDGQCGSPLVSTRDGFIVGIHSASNFTNTNNYFTSVPKNFMELLTNQEAQQWVSGWRLNADSVLWGGHKVFMVKPEEPFQPVKEATQL [Q146D]	0.0586	0.0606	0.0714	0.0815	–	–	0.0693	–	0.0754	0.0662	–	0.0503	–	0.105	–	0.0682	–
